Data as given in the supplement of paper PMC8285479.
Where a name gives a salt, the structure may show the parent alone. ± gives the standard deviation of the averaged measurements. Whole data set: some 1,900 compounds, median “normalised cell viability (NPI; 0 = phenylarsine oxide control, 1 = DMSO control)” near 1, cut for the lowest 2% near 0.039. Some of the results follow.

System: NCI-H1944
Assay: normalised cell viability (NPI; 0 = phenylarsine oxide control, 1 = DMSO control) (fraction of DMSO control); NCI-H1944 is a non-small cell lung cancer line; higher = more viable cells (less compound toxicity)
Settings: 6 days
[1] = glucocorticoid arm: hydrocortisone 2.75 uM co-treatment, compound 1 µM
[2] = glucocorticoid arm: hydrocortisone 2.75 uM co-treatment, compound 5 µM
[3] = glucocorticoid arm: hydrocortisone 2.75 uM pre-treated 2 days and continued, compound 1 µM
[4] = glucocorticoid arm: hydrocortisone 2.75 uM pre-treated 2 days and continued, compound 5 µM
[5] = glucocorticoid arm: vehicle, compound 1 µM
[6] = glucocorticoid arm: vehicle, compound 5 µM
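Note: CTB read-out in 384-well plates, mean of triplicate wells, normalised per plate against 1 µM phenylarsine oxide and 0.1% DMSO, compounds added 24 h after seeding.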

Structure (SMILES) | normalised cell viability [1] | normalised cell viability [2] | normalised cell viability [3] | normalised cell viability [4] | normalised cell viability [5] | normalised cell viability [6]
COc1cc2nc(N3CCN(C(=O)C4COc5ccccc5O4)CC3)nc(N)c2cc1OC (stereo unspecified) [Doxazosin Mesylate] | 1.007 ± 0.0058 | 1.027 ± 0.0058 | 1.01 ± 0.018 | 1.02 ± 0.015 | 0.9953 ± 0.0011 | 0.9983 ± 0.0029
COc1cc2nc(N3CCN(C(=O)C4COc5ccccc5O4)CC3)nc(N)c2cc1OC (stereo unspecified) [Doxazosin mesylate] | 1.01 ± 0.013 | 0.995 ± 0.022 | 0.997 ± 0.014 | 1.04 | 1 ± 0.011 | 0.9887 ± 0.0098
N#C/C(=C(/N)Sc1ccc(N)cc1)c1ccccc1C(F)(F)F | 0.827 ± 0.0092 | 0.649 ± 0.021 | 0.85 ± 0.013 | 0.78 ± 0.011 | 0.954 ± 0.0069 | 0.859 ± 0.057
COc1cc(OC)c(NC(=O)Nc2cc(C)on2)cc1Cl | 0.955 ± 0.011 | 0.857 ± 0.0095 | 0.981 ± 0.02 | 0.914 ± 0.0056 | 0.971 ± 0.018 | 0.9783 ± 0.0093
CNC(=O)c1ccc(N2C(=S)N(c3ccc(C#N)c(C(F)(F)F)c3)C(=O)C2(C)C)cc1F [Enzalutamide] | 1.02 ± 0.011 | 0.658 ± 0.015 | 1.002 ± 0.0072 | 0.812 ± 0.026 | 1.002 ± 0.0072 | 0.244 ± 0.02
O=C(CCBr)N1CCN(C(=O)CCBr)CC1 [Pipobroman] | 1.01 ± 0.011 | 1.06 ± 0.01 | 1.01 ± 0.012 | 1.06 ± 0.01 | 1.003 ± 0.0058 | 0.82 ± 0.019
N[C@H]1CONC1=O [L-Cycloserine] | 1.01 ± 0.016 | 1.01 ± 0.017 | 1 ± 0.017 | 0.99 ± 0.0057 | 1.01 ± 0.011 | 1.002 ± 0.007
CC#CCn1c(N2CCC[C@@H](N)C2)nc2c1c(=O)n(Cc1nc(C)c3ccccc3n1)c(=O)n2C [Linagliptin (BI-1356)] | 0.977 ± 0.01 | 1.001 ± 0.0085 | 0.987 ± 0.028 | 1 ± 0.013 | 0.992 ± 0.011 | 1.007 ± 0.0058
COc1ccc2c3n(c(=NC(=O)c4cccnc4)nc2c1OC)CCN3 | 0.911 ± 0.004 | 0.628 ± 0.018 | 0.901 ± 0.012 | 0.663 ± 0.033 | 0.9907 ± 0.0049 | 0.85 ± 0.029
CCN(CC)CCOCCOC(=O)C1(c2ccccc2)CCCC1 [Carbetapentane citrate] | 0.985 ± 0.025 | 0.952 ± 0.019 | 1.02 ± 0.01 | 1.01 | 0.998 ± 0.013 | 1.003 ± 0.0058
O=c1[nH]ccc2c(O)cccc12 [1,5-Isoquinolinediol] | 1.007 ± 0.0058 | 1.01 ± 0.017 | 0.9963 ± 0.0063 | 1.04 ± 0.086 | 0.985 ± 0.007 | 0.991 ± 0.017
Cc1cc(C(C)(C)C)cc(C)c1CC1=NCCN1 [Xylometazoline hydrochloride] | 1.02 ± 0.01 | 1.02 ± 0.02 | 1.03 ± 0.032 | 1.03 ± 0.021 | 1.013 ± 0.0058 | 1.02 ± 0.01
COc1cc(NC(=O)c2ccccn2)ccc1Cl | 1.03 ± 0.023 | 1.02 ± 0.011 | 1.007 ± 0.0058 | 1.01 ± 0.02 | 1.02 ± 0.017 | 1.003 ± 0.0064
O=P(O)(O)C(O)(Cn1ccnc1)P(=O)(O)O [Zoledronic acid; Zolendronic acid] | 0.887 ± 0.026 | 1.02 ± 0.015 | 0.9123 ± 0.0087 | 1.01 ± 0.013 | 0.8097 ± 0.004 | 1.007 ± 0.0058
O=C(c1cc(O)c(O)c([N+](=O)[O-])c1)c1ccccc1F | 1 ± 0.0089 | 0.997 ± 0.025 | 1.02 ± 0.021 | 0.975 ± 0.017 | 0.9857 ± 0.0095 | 0.9863 ± 0.0021
CCc1cccc(CC)c1NC(=O)N1Cc2[nH]nc(NC(=O)c3ccc(N4CCN(C)CC4)cc3)c2C1 | 0.842 ± 0.046 | 0.633 ± 0.067 | 0.917 ± 0.043 | 0.882 ± 0.06 | 0.509 ± 0.06 | 0.221 ± 0.019
CC[C@@H]1C(=O)N(C)c2cnc(Nc3ccc(C(=O)N[C@H]4CC[C@H](N5CCN(CC6CC6)CC5)CC4)cc3OC)nc2N1C(C)C [BI6727 (Volasertib)] | 0.346 ± 0.023 | 0.201 ± 0.025 | 0.58 ± 0.017 | 0.213 ± 0.15 | 0.0771 ± 0.019 | 0.0219 ± 0.0034
Nc1c(O)cc(O)cc1C=Cc1ccc(O)cc1 [Aminoresveratrol sulfate] | 1 ± 0.015 | 1.01 ± 0.02 | 1.01 ± 0.015 | 1.01 ± 0.014 | 0.9937 ± 0.0027 | 1.01 ± 0.012
COc1ccc(Cl)cc1C(=O)NCCc1ccc(S(=O)(=O)NC(=O)NC2CCCCC2)cc1 [Glybenclamide] | 1.01 ± 0.018 | 0.9983 ± 0.0021 | 1.007 ± 0.0058 | 0.997 ± 0.013 | 1.001 ± 0.0081 | 1.003 ± 0.0058
CCCOc1ccccc1-c1nc2[nH]nnc2c(=O)[nH]1 [Zaprinast] | 1.023 ± 0.0058 | 1.013 ± 0.0058 | 1.04 ± 0.026 | 1.01 ± 0.01 | 1.023 ± 0.0058 | 1.023 ± 0.0058
Cc1nc(C(=O)NCC(=O)O)c(O)c2ccc(Oc3ccccc3)cc12 | 0.9907 ± 0.0081 | 1.01 ± 0.011 | 0.9877 ± 0.0015 | 1.006 ± 0.0075 | 1.003 ± 0.0058 | 0.9967 ± 0.0031
CC(C)N(CC[C@H](c1ccccc1)c1cc(CO)ccc1O)C(C)C | 0.992 ± 0.026 | 0.991 ± 0.018 | 1.02 ± 0.015 | 0.994 ± 0.017 | 1.005 ± 0.0081 | 0.998 ± 0.011
Cn1cc(C(F)(F)F)nc1-c1ccc(OCC(O)CNCCOc2ccc(O)c(C(N)=O)c2)cc1 (stereo unspecified) | 1 | 0.97 ± 0.014 | 0.9983 ± 0.0029 | 0.983 ± 0.015 | 1.007 ± 0.0058 | 0.998 ± 0.012
CC(C(O)c1ccc(O)cc1)N1CCC(Cc2ccccc2)CC1 (stereo unspecified) [Ifenprodil Tartrate] | 0.9203 ± 0.0078 | 0.88 ± 0.023 | 0.96 ± 0.035 | 0.93 ± 0.035 | 1.003 ± 0.0058 | 0.9643 ± 0.0067
CC(C(O)c1ccc(O)cc1)N1CCC(Cc2ccccc2)CC1 (stereo unspecified) [Ifenprodil tartrate] | 0.936 ± 0.0079 | 0.902 ± 0.03 | 0.9643 ± 0.0064 | 1.04 ± 0.09 | 0.975 ± 0.0095 | 0.979 ± 0.012
O=c1ccn([C@@H]2O[C@H](COP(=O)(O)OP(=O)(O)O)[C@@H](O)[C@H]2O)c(=O)[nH]1 [Uridine 5'-diphosphate sodium] | 1 ± 0.0087 | 1.017 ± 0.0058 | 1.02 ± 0.015 | 0.998 ± 0.0027 | 0.996 ± 0.0069 | 0.9977 ± 0.004
